Paper PMC10726135
The other results are listed elsewhere or left out. At the low end of the ranking the order means little. Measured with an extract: partners may take part in the binding.

Biological target: T1, HNF4alpha8 (COS-7 nuclear extract) (UniProt P41235-5)
T1 sequence: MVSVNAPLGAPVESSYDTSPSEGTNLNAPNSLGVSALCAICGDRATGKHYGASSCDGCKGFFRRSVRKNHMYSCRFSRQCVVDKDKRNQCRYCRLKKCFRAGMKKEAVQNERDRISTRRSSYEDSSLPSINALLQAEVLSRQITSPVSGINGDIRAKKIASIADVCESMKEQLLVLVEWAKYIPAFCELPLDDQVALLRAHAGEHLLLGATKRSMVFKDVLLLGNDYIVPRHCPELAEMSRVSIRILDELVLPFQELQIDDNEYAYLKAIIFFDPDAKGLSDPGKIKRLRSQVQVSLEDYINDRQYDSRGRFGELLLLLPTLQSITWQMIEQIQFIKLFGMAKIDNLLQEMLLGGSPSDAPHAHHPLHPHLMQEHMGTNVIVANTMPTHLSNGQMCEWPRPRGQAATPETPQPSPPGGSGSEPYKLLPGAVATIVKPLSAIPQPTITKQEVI
Test: protein-binding microarray
Details: COS-7 nuclear extract on double-stranded Agilent 4x180k PBM; binding buffer, salt, pH and temperature not given; high values mean tight binding; double strand, one strand shown; sequences stand for … in …GCCTAGGGAGATTAGAGTATCGGTCGA

| Sequence | binding signal (log2 normalized intensity) |
| --- | --- |
| CTGAGTCTGATAAGGAAGATAATGGGTCCG | 1.38 |
| CAGAGGTTTCGCAAGGACGTGACCTTTATG | 4.94 |
| TAACGCCCGCCTAACCTTGAGGAGCCCTAT | -1.38 |
| TTTGTCCCCCACCTGTGAAGATAAGCTGTC | 3.17 |
| GAAAGTGAGGCCTGGCCGAGGTTGCCCAGC | -0.923 |
| CACACTGTACCCGTCCACCTTTGGATCCAG | 3 |
| CTATTCTCAGTGATATAAAACCTTTTTCTG | 1.37 |
| TCCACTGAAAATGCCAAGTTTCAGGCTATG | -1.36 |
| TGACCTTTAGCCTGGCCATTTCTCAGGTTG | 4.5 |
| GCATCCTTCTCCTCCCCTCCCCCCAGTTCC | 5.79 |
| AAATGAAAACACAGCTCACCACCTAGTAAA | -1.23 |
| GCCAGGCAGGAAGGAGCCTGCTTTGCTGAG | -1.12 |
| GAACATGGACTTTGAACCTCTCTTCTTTTT | 7.93 |
| TCTCTGCCCTCTTCCCTCTACCTCTGTTCT | 2 |
| AGTGACTCAGAGCATATGTTGACCCGAGTG | 3.49 |
| TCTTATCACCATCCCTGTTGCCTCATCTGA | 0.485 |
| CTCGGGGAGCTGTGGGCCTCACACCCTCTA | -1.37 |
| CATGGACTTTGAACCAAGATATGCTAACAT | 5.27 |
| GCTGACCTACATTCCACCCTCATTTGCTTG | 0.0951 |
| AGCATCACCAGTGCAGCTGACCTACATTCC | 1.39 |
| CAAGCCAGAAAGATGTTTGCCCCAAGATAA | 2.44 |
| GATAGTAAAATGGACTTTGTGGGCCAAAAG | 3.36 |
| TCATACCACATGGATGGATTCAGATCCAGT | -1.32 |
| GGAAAGAACAGGTCAAAGGTCAGTTTCTTT | 7.69 |
| ACTCAGGCATTCTGACCTTTGTCTCCAGGC | 6.52 |

| Sequence | binding signal (log2 normalized intensity) |
| --- | --- |
| CACACTCACAGAACACAGTGTTTGCTTTAG | -0.807 |
| AGTCTGTTATCCCTAGGAAGGATAAGAGCA | -0.925 |
| TCTGATGCGGCTTCTCATACTACTGTACTT | 1.21 |
| GTGCACCCTGGTCTCTCTTACCCAACCAAA | 2.74 |
| AAGGGTAATCTGCTTTTCTCGAAGCCAACT | -1.25 |
| TACCTTTCTTATCATAAGTAAAAAGAGAGA | 0.54 |
| TAACAATGCTGATGGGGACCACAGAGAACT | -1.16 |
| GCCTCCCCCTCTTTATCTCCTGGAATCCAA | 2.15 |
| GTTCTATCGGAGAACGTTCCAAACCTACAC | -1.31 |
| CACCCAGGCTGAAGTCCAGTAGCTCAATCA | -1.13 |
| TTTGGCCCCCAGAGCCCCGTGTCTCCCTAC | 4.89 |
| AGGTGAAACTCCAGGCTCCAAGGGTATAGG | -1.32 |
| ATGGGGAGCAGTGGGAGGTGAGGAAAACGG | -1.24 |
| AGCTGGCCTCACTAAGTCCTGCTTAGAGCA | -1.31 |
| ACGTCTAGAGCTGTCCAGCAGACAATGGGA | -1.25 |
| AAGGCACAATCAGGGCTAAAGTCAGGGGCA | -1.44 |
| GTCCAAAGGTAAAAACTGGCTCTTATTTTT | 0.401 |
| AGGCCGGAGGTCTGGAATGTGGAGAATGGC | -1.25 |
| TCTCTCCTGGTTTGGGGCCTAAATGCTTCT | -0.527 |
| ATTTGTGATCTGGCACAAATTCTAGATTCA | -1.33 |
| AAACACCTAGAGTTACAGTCACTCCCTATC | -0.853 |
| CAGTCGATCTTTGACCGCTGCCTCCCACCC | 4.31 |
| TTTGAAAGAAAGAGACCTTTACCCTGACCT | 4.47 |
| TTCATTAAAAAAAAAAAAAAATACTCCTAT | -1.21 |
| AACCTGTTGGGTCAGGCTGCTCAGCTGCCT | -1.28 |

| Sequence | binding signal (log2 normalized intensity) |
| --- | --- |
| CCAGCCTGGCCTCTAGAGTGGTTGCCTGTG | -1.39 |
| TAGTCAGATTCCTCTGAGTCCTCTTCCCAA | -1.35 |
| TATGGACAATGAAATTCAGGCTGAGGTGCT | -1.4 |
| CAAATGATCAAAGGTCGGTTTTAGGACAAC | 4.95 |
| CAGATAATTACCTGGACTCTAGAGCCAGAC | 1.75 |
| CTTTGCCCCAGAGGAAGACATCATATTTGT | 0.87 |
| TTTGAAGAAGACAAAACAGCGTACTGTGCT | -1.42 |
| CACACCGAGCACGGTGCAGGGAGGATATCC | -1.48 |
| GGCAGCTTCAGGATGAAGGCTGCTGCCTGA | -1.39 |
| TCCTCCAGCCCTCCTCTCTGTAGTCCTCAG | 0.507 |
| GTAGGAGGAGATTGATGGTTTTATCAGCTG | -1.21 |
| AGGTCACTCTTGCTAAGCTTTAGCAAAGAA | -1.32 |
| AAATCTTCTTTAAGCTATGTGGTGGAATGG | 1.8 |
| CCAAGGCTTCCAATCCTGGAGAAGGAGCAC | -1.31 |
| TACTCAGCTAATCTAGAGACACTATGTGCA | -0.633 |
| TTCCACCTCCCTCCATGCTGTAGATTGTGG | 1.24 |
| TGGATCGGGATGATCAATGTGTAGTTTCAC | 1.11 |
| GAAACTGTTTCCAATAGGTTTGATTTCAGC | -1.35 |
| ACTGGCTAAATCCCACCAAAGCCATGAGGC | 1.13 |
| AATGACTTGCCCAAGGGCATGGGAAGCAGT | -1.29 |
| GCTGAACCTAGAGCTTCAGACGCCCTATGG | -0.782 |
| CCTCTAACTATGCAGTGTCCATGGTGACCA | 2.01 |
| CTGTTTCAAAACTACAAAGTGGTTTTCTTG | 0.891 |
| GTGCTCTCAGATAAGAGATGAGGAACTTGT | -1.18 |
| GAATCTCAGGAGTGATGCCAGAAGATTAGT | -1.19 |

| Sequence | binding signal (log2 normalized intensity) |
| --- | --- |
| TACCAAAGACTGAGCAGCTGGAGGGGGACT | -1.38 |
| CTTTTGCTGACATGCTCTTGGAATGTTGAA | 1.68 |
| GGAACGCGCGGGCAGGTTGCCCTTTCGGTG | 4.05 |
| CAAGTACCCTTTATCCCTCACAATCTTAAG | 0.843 |
| TACTCTCATCACTTAGGATATTCCAAGGGG | 0.662 |
| TCTGCCCCCTACACAGAGGAGCGACCCAGG | 3.24 |
| CTTGGTATCAGCTTTGAGACACCTGGCCAA | -1.16 |
| AGAGGCCAATTTCTTGTCTGGTCCGAAGGT | 1.68 |
| GGGAATTCAAGGAATGCAGCTCAGACTGCT | -1.33 |
| CTTATCTACTTTAAGATTTGACCCTTGGCC | 7.78 |
| GCATGGTGCTTCGCACTTCAGCACCATAAA | 0.965 |
| GAATATTTAAGATTCCAGCTCTCGGATCCT | -1.28 |
| ACATGATGTCAGTTTGACTCCAAAGGGCTG | 0.898 |
| ATCCTCATTGTGTGCAGACCTTCTCTGGCC | 1.23 |
| GTCCAAAGTCTTTGTTCCTAGCCACCATGC | 0.801 |
| GATATTTTTCAGACCTTGCATTCTGAGGAA | -1.24 |
| TAAAACTGCAGATTGACTCAGGCATTCTGA | -1.12 |
| ATTCTAGAGGTCAGAAGTCCAAAATCAGTC | 4.43 |
| TATTAAATGGAATACTTGCCTAAGGTCAAT | 2.71 |
| GGCTTCGTCCCTGGGGCCCCACTGGGGTGG | -1.16 |
| CTGCACTGACCTTTACCCATTCCTTAGTGC | 5.03 |
| TTGACCTCTCTCTCCTAACTATGGTCACGC | 2.99 |
| ACTTAGCTCTTTAGGAATGCAACTCTAACC | -1.15 |
| TTAGTTTCTTTACCATGTGTTGGCACTTTG | 1.73 |
| CATCCATATCATTAGTCTCTGCTGGCTTTC | 0.387 |

| Sequence | binding signal (log2 normalized intensity) |
| --- | --- |
| AATTAGCTTGAGCGAGACAGCGGGTGTTTC | -1.3 |
| ACACTGGGCTAGAGGTCTTAATCTTTTTAC | 1.15 |
| CGCAGCCGCGCTCCGCCCCGTTCCCGGCAG | -1.33 |
| GGCCAAGGGATTTCAGTGCCCTCATAAGAG | -1.28 |
| TCAGCAGTTGTTCAAAGTCCATGTGTTAAA | 4.84 |
| AATAGGGTGACAGTATCAAAGTCCCCAGAT | 2.49 |
| GGGACTGCAAGTACGATTGGCTGGACATCT | -1.27 |
| GTACCAAAATCACACTGGGAATTGGGATGG | -1.34 |
| TACCATGTCCTGTGATTAAGGTCAATGGGA | 2.3 |
| TGGGGTACTTGAACCCTACTCATAATTGCT | 0.903 |
| ATCCACAAAGATAAGAAAAAAACAGCACAA | -1.18 |
| CAGTTCAAAAGTTCAAAGATATGATGGCCA | 2.12 |
| AACCCAAGGCCAAACACGGACAGGCAGGCC | -1.32 |
| AGCAAACAATGATGAAAGGAGCTTGGGAAG | -1.39 |
| CCCTAATTACATATTAACCTTTGCCCCAGC | 7.29 |
| GTTTCACCCTGAGGAATCCCATTCCCTCTA | -1.18 |
| CTGGGCAGATAACAGCGAACATGAGGAATA | -1.06 |
| GGACACAAAGAGTTCAGAGAGGGATTAAAG | -1.29 |
| AGCAGGACACCAAACAGACCTCCCCCAACT | 4.08 |
| AAGAGATAAAAGAGAAGATAATGGATTGGG | -1.35 |
| GTGAGGTCACAGTATTCATTCCCCTAGTAT | 2.84 |
| CTCCCCCACCACTGCTTCCTGCCCCCTGTG | 5.88 |
| TCATGTTCAATATACAGTTGGTATTTAGTA | 1.71 |
| AGCAAAAAGTTTGGACTAGCCACAGGGGAA | -1.31 |
| GCCCTACAGCTCCTGAGTCCACATGAGCCT | 0.625 |

| Sequence | binding signal (log2 normalized intensity) |
| --- | --- |
| CTGGCCATGCCCCAGATGCCCAGCAGAGGG | -1.06 |
| AACAGCCCCATGAGATAGGTACTATTATTA | 0.551 |
| GCCATCTGGTGGACTTTGCTCTGCTCATTT | 7.25 |
| TAGCAACCAAGTACCGCAAACAAGGTGGCT | -1.26 |
| ACTTTGTAGCTCAAACAGTCTAAAAACCAT | -1.35 |
| ACTTTGACTTCCATTGTGTTGCAGATGATC | 1.67 |
| CTTTGAGAAAGCAAAGTCCCTGGGGACAGG | -0.149 |
| TTGGTACCTCCCCCCACACCATTAGAGAAC | 5.27 |
| GGAATGAATCAGAATTTGGAGAATTCAGAC | -1.35 |
| CTGGATTCTCAAACCTTCCAAAGTTCAACC | 4.09 |
| ACACACACACACACACACATTGCAGTATGC | -1.18 |
| TTGCCTCATGTTTGCAGAATGGCTGATGTA | 1.58 |
| TTTTAGAATTAACTAAAAGTATCTAAGGGC | 0.0738 |
| AAAGGCAACATCTTGAGCCAGGAATGCAAG | -1.26 |
| AGGCTCAGAGGTCAAGTCACTGCTCAAAAA | 1.7 |
| ATTCCGGCCGTATCAGAAGAACTGCACTGT | 0.189 |
| GACTCCTCCCTCAGCCTGAACCTCTGTCTC | 0.92 |
| CTTCATATCAGTAAACCCCAATCAGGTTTC | 1.27 |
| AAAACTGGTCAATATCCACACAAACCCAGT | -0.919 |
| GCAGGAGCTGGCCTGGTAGGACAGGGATCC | -1.32 |
